± gives the standard deviation of the averaged measurements. Laboratory Escherichia coli strains with one amino-acid change in an essential protein, pooled on minimal glucose agar with carbenicillin or gentamicin at twice the control MIC (plus kanamycin and chloramphenicol for the plasmids), 48 h. Fold change of barcode share against drug-free plates; higher = less susceptible. Active = above 20 in both replicates (the paper's putatively resistant). '<' = one read or none on drug, '>' = one read or none on a drug-free plate. Shares are relative, so most strains fall below 1 when a few take over. Listed are strains with at least 15 reads on both drug-free plates, and hits; most hits rest on fewer reference reads. Replicate rank correlation about 0.5. Edits are read from barcodes.
B1: cysB L161A (protein)
chain: MKLQQLRYIVEVVNHNLNVSSTAEGLYTSQPGISKQVRMLEDELGIQIFSRSGKHLTQVTPAGQEIIRIAREVLSKVDAIKSVAGEHTWPDKGSLYIATTHTQARYALPNVIKGFIERYPRVSLHMHQGSPTQIADAVSKGNADFAIATEALHLYEDLVMAPCYHWNRAIVVTPDHPLAGKKAITIEELAQYPLVTYTFGFTGRSELDTAFNRAGLTPRIVFTATDADVIKTYVRLGLGVGVIASMAVDPVADPDLVRVDAHDIFSHSTTKIGFRRSTFLRSYMYDFIQRFAPHLTRDVVDAAVALRSNEEIEVMFKDIKLPEK
B2: cysB L161W (protein)
chain: MKLQQLRYIVEVVNHNLNVSSTAEGLYTSQPGISKQVRMLEDELGIQIFSRSGKHLTQVTPAGQEIIRIAREVLSKVDAIKSVAGEHTWPDKGSLYIATTHTQARYALPNVIKGFIERYPRVSLHMHQGSPTQIADAVSKGNADFAIATEALHLYEDLVMWPCYHWNRAIVVTPDHPLAGKKAITIEELAQYPLVTYTFGFTGRSELDTAFNRAGLTPRIVFTATDADVIKTYVRLGLGVGVIASMAVDPVADPDLVRVDAHDIFSHSTTKIGFRRSTFLRSYMYDFIQRFAPHLTRDVVDAAVALRSNEEIEVMFKDIKLPEK
B3: cysB V172P (protein)
chain: MKLQQLRYIVEVVNHNLNVSSTAEGLYTSQPGISKQVRMLEDELGIQIFSRSGKHLTQVTPAGQEIIRIAREVLSKVDAIKSVAGEHTWPDKGSLYIATTHTQARYALPNVIKGFIERYPRVSLHMHQGSPTQIADAVSKGNADFAIATEALHLYEDLVMLPCYHWNRAIVPTPDHPLAGKKAITIEELAQYPLVTYTFGFTGRSELDTAFNRAGLTPRIVFTATDADVIKTYVRLGLGVGVIASMAVDPVADPDLVRVDAHDIFSHSTTKIGFRRSTFLRSYMYDFIQRFAPHLTRDVVDAAVALRSNEEIEVMFKDIKLPEK
B4: cysB V172Q (protein)
chain: MKLQQLRYIVEVVNHNLNVSSTAEGLYTSQPGISKQVRMLEDELGIQIFSRSGKHLTQVTPAGQEIIRIAREVLSKVDAIKSVAGEHTWPDKGSLYIATTHTQARYALPNVIKGFIERYPRVSLHMHQGSPTQIADAVSKGNADFAIATEALHLYEDLVMLPCYHWNRAIVQTPDHPLAGKKAITIEELAQYPLVTYTFGFTGRSELDTAFNRAGLTPRIVFTATDADVIKTYVRLGLGVGVIASMAVDPVADPDLVRVDAHDIFSHSTTKIGFRRSTFLRSYMYDFIQRFAPHLTRDVVDAAVALRSNEEIEVMFKDIKLPEK
B5: cysB V171W (protein)
chain: MKLQQLRYIVEVVNHNLNVSSTAEGLYTSQPGISKQVRMLEDELGIQIFSRSGKHLTQVTPAGQEIIRIAREVLSKVDAIKSVAGEHTWPDKGSLYIATTHTQARYALPNVIKGFIERYPRVSLHMHQGSPTQIADAVSKGNADFAIATEALHLYEDLVMLPCYHWNRAIWVTPDHPLAGKKAITIEELAQYPLVTYTFGFTGRSELDTAFNRAGLTPRIVFTATDADVIKTYVRLGLGVGVIASMAVDPVADPDLVRVDAHDIFSHSTTKIGFRRSTFLRSYMYDFIQRFAPHLTRDVVDAAVALRSNEEIEVMFKDIKLPEK
B6: cysB L161D (protein)
chain: MKLQQLRYIVEVVNHNLNVSSTAEGLYTSQPGISKQVRMLEDELGIQIFSRSGKHLTQVTPAGQEIIRIAREVLSKVDAIKSVAGEHTWPDKGSLYIATTHTQARYALPNVIKGFIERYPRVSLHMHQGSPTQIADAVSKGNADFAIATEALHLYEDLVMDPCYHWNRAIVVTPDHPLAGKKAITIEELAQYPLVTYTFGFTGRSELDTAFNRAGLTPRIVFTATDADVIKTYVRLGLGVGVIASMAVDPVADPDLVRVDAHDIFSHSTTKIGFRRSTFLRSYMYDFIQRFAPHLTRDVVDAAVALRSNEEIEVMFKDIKLPEK
B7: cysB V172A (protein)
chain: MKLQQLRYIVEVVNHNLNVSSTAEGLYTSQPGISKQVRMLEDELGIQIFSRSGKHLTQVTPAGQEIIRIAREVLSKVDAIKSVAGEHTWPDKGSLYIATTHTQARYALPNVIKGFIERYPRVSLHMHQGSPTQIADAVSKGNADFAIATEALHLYEDLVMLPCYHWNRAIVATPDHPLAGKKAITIEELAQYPLVTYTFGFTGRSELDTAFNRAGLTPRIVFTATDADVIKTYVRLGLGVGVIASMAVDPVADPDLVRVDAHDIFSHSTTKIGFRRSTFLRSYMYDFIQRFAPHLTRDVVDAAVALRSNEEIEVMFKDIKLPEK
B8: cysB V171A (protein)
chain: MKLQQLRYIVEVVNHNLNVSSTAEGLYTSQPGISKQVRMLEDELGIQIFSRSGKHLTQVTPAGQEIIRIAREVLSKVDAIKSVAGEHTWPDKGSLYIATTHTQARYALPNVIKGFIERYPRVSLHMHQGSPTQIADAVSKGNADFAIATEALHLYEDLVMLPCYHWNRAIAVTPDHPLAGKKAITIEELAQYPLVTYTFGFTGRSELDTAFNRAGLTPRIVFTATDADVIKTYVRLGLGVGVIASMAVDPVADPDLVRVDAHDIFSHSTTKIGFRRSTFLRSYMYDFIQRFAPHLTRDVVDAAVALRSNEEIEVMFKDIKLPEK

Target: Escherichia coli (laboratory strain)
Experiment: barcode share on antibiotic plates over drug-free plates; higher = less susceptible
Description: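 A pool of E. coli strains, each edited to carry one amino-acid change in an essential protein, was grown for 48 h on minimal glucose agar with or without antibiotic; strain barcodes were sequenced; mean of two replicates.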

[1] = antibiotic: carbenicillin, 2× MIC (3.1 µg/mL)
[2] = antibiotic: gentamicin, 2× MIC (MIC 0.45 µg/mL)

Protein | fold change of barcode share [1] | fold change of barcode share [2]
B1 | 0.468 ± 0.34 | 0.149 ± 0.16
B2 | 0.698 ± 0.18 | 0.0164 ± 0.011
B3 | 0.54 ± 0.072 | –
B4 | 0.263 ± 0.1 | 0.072 ± 0.046
B5 | 0.198 ± 0.0059 | 0.0445 ± 0.055
B6 | 0.331 ± 0.11 | 0.0116 ± 0.0087
B7 | 0.21 ± 0.023 | 0.0181 ± 0.01
B8 | 0.427 ± 0.2 | < 0.00879
